# The supplement of paper PMC8728848
# The other results are listed elsewhere or left out.
# B1: Jacalin (Artocarpus integrifolia) (protein)
# chain: MAYSSLLSLSVLALLFSISSADTRKWFLANGINQNPIGIIEAAVGVSEDLLNLNGMEAKNDEQSGISQTVIVGPWGAKVSTSSNGKAFDDGAFTGIREINLSYNKETAIGDFQVVYDLNGSPYVGQNHKSFITGFTPVKISLDFPSEYIMEVSGYTGNVSGYVVVRSLTFKTNKKTYGPYGVTSGTPFNLPIENGLIVGFKGSIGYWLDYFSMYLSL
# Legend:
# Assay in all cases: glycan array binding signal (z-score within array); higher = stronger binding
# Conditions in all cases: glycan notation: IUPAC condensed, linker removed
# [1] = biological target: Gal(b1-4)GlcNAc(b1-6)GalNAc
# In short: (§1)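 Columns mapping to the same glycan were averaged after glycan names were converted to IUPAC-condensed notation. The data come from 3228 arrays in the Consortium for Functional Glycomics database, limited to those with an available protein sequence. Binding is reported as a within-array Z-score averaged across arrays of one protein sequence and across linkers.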
# [2] = biological target: Gal(b1-4)GlcNAc(b1-6)[Gal(b1-3)]GalNAc
# In short: as §1
# [3] = biological target: Gal(b1-4)GlcNAc(b1-6)[Gal(b1-4)GlcNAc(b1-3)]GalNAc
# In short: as §1
# Gal(b1-4)GlcNAc6P = biological target: Gal(b1-4)GlcNAc6P
# In short: as §1
# Gal(b1-6)Gal = biological target: Gal(b1-6)Gal
# In short: as §1
# Gal3S(b1-3)GalNAc = biological target: Gal3S(b1-3)GalNAc
# In short: as §1
# Gal3S(b1-3)GlcNAc = biological target: Gal3S(b1-3)GlcNAc
# In short: as §1
# [4] = biological target: Gal3S(b1-3)[Fuc(a1-4)]GlcNAc
# In short: as §1
# Gal3S(b1-4)Glc = biological target: Gal3S(b1-4)Glc
# In short: as §1
# Gal3S(b1-4)Glc6S = biological target: Gal3S(b1-4)Glc6S
# In short: as §1
# Gal3S(b1-4)GlcNAc = biological target: Gal3S(b1-4)GlcNAc
# In short: as §1
# Gal3S(b1-4)GlcNAc6S = biological target: Gal3S(b1-4)GlcNAc6S
# In short: as §1
# [5] = biological target: Gal3S(b1-4)[Fuc(a1-3)]Glc6S
# In short: as §1
# [6] = biological target: Gal3S(b1-4)[Fuc(a1-3)]GlcNAc
# In short: as §1
# [7] = biological target: Gal3S(b1-4)[Fuc(a1-3)]GlcNAc6S
# In short: as §1
# Gal3S4S(b1-4)GlcNAc = biological target: Gal3S4S(b1-4)GlcNAc
# In short: as §1
# Gal3S6S(b1-4)GlcNAc = biological target: Gal3S6S(b1-4)GlcNAc
# In short: as §1
# Gal3S6S(b1-4)GlcNAc6S = biological target: Gal3S6S(b1-4)GlcNAc6S
# In short: as §1
# Gal4S(b1-4)GlcNAc = biological target: Gal4S(b1-4)GlcNAc
# In short: as §1
# Gal4S6S(b1-4)GlcNAc = biological target: Gal4S6S(b1-4)GlcNAc
# In short: as §1
# Gal6P(b1-4)GlcNAc = biological target: Gal6P(b1-4)GlcNAc
# In short: as §1
# Gal6S(b1-3)GlcNAc = biological target: Gal6S(b1-3)GlcNAc
# In short: as §1
# Gal6S(b1-3)GlcNAc6S = biological target: Gal6S(b1-3)GlcNAc6S
# In short: as §1
# Gal6S(b1-4)Glc = biological target: Gal6S(b1-4)Glc
# In short: as §1
# Gal6S(b1-4)Glc6S = biological target: Gal6S(b1-4)Glc6S
# In short: as §1
# Gal6S(b1-4)GlcNAc = biological target: Gal6S(b1-4)GlcNAc
# In short: as §1
# Gal6S(b1-4)GlcNAc6S = biological target: Gal6S(b1-4)GlcNAc6S
# In short: as §1
# GalNAc(a1-3)Gal = biological target: GalNAc(a1-3)Gal
# In short: as §1
# GalNAc(a1-3)GalNAc = biological target: GalNAc(a1-3)GalNAc
# In short: as §1
# [8] = biological target: GalNAc(a1-3)GalNAc(a1-3)Gal(a1-4)Gal(b1-4)GlcNAc
# In short: as §1
# [9] = biological target: GalNAc(a1-3)GalNAc(b1-3)Gal(a1-4)Gal(b1-4)Glc
# In short: as §1
# [10] = biological target: GalNAc(a1-3)GalNAc(b1-3)Gal(a1-4)Gal(b1-4)GlcNAc
# In short: as §1
# GalNAc(b1-3)Gal = biological target: GalNAc(b1-3)Gal
# In short: as §1
# [11] = biological target: GalNAc(b1-3)Gal(a1-4)Gal(b1-4)GlcNAc
# In short: as §1
# [12] = biological target: GalNAc(b1-3)Gal(a1-4)Gal(b1-4)GlcNAc(b1-3)Gal(b1-4)Glc
# In short: as §1
# [13] = biological target: GalNAc(b1-3)Gal(a1-6)Gal(b1-4)Glc
# In short: as §1
# GalNAc(b1-3)GalNAc = biological target: GalNAc(b1-3)GalNAc
# In short: as §1
# GalNAc(b1-3)GlcNAc = biological target: GalNAc(b1-3)GlcNAc
# In short: as §1
# GalNAc(b1-4)Gal(b1-4)Glc = biological target: GalNAc(b1-4)Gal(b1-4)Glc
# In short: as §1
# GalNAc(b1-4)GlcNAc = biological target: GalNAc(b1-4)GlcNAc
# In short: as §1
# [14] = biological target: GalNAc(b1-4)GlcNAc(b1-2)Man
# In short: as §1
# [15] = biological target: GalNAc(b1-4)GlcNAc(b1-2)Man(a1-3)[GalNAc(b1-4)GlcNAc(b1-2)Man(a1-6)]Man(b1-4)GlcNAc(b1-4)GlcNAc
# In short: as §1
# [16] = biological target: GalNAc(b1-4)GlcNAc(b1-3)GalNAc(b1-4)GlcNAc
# In short: as §1
# GalNAc(b1-4)GlcNAc6S = biological target: GalNAc(b1-4)GlcNAc6S
# In short: as §1
# GalNAc(b1-6)GalNAc = biological target: GalNAc(b1-6)GalNAc
# In short: as §1
binder,measurement,setting,value
B1,glycan array binding signal (z-score),[1],-0.256
same,glycan array binding signal (z-score),[2],-0.262
same,glycan array binding signal (z-score),[3],-0.26
same,glycan array binding signal (z-score),Gal(b1-4)GlcNAc6P,-0.256
same,glycan array binding signal (z-score),Gal(b1-6)Gal,-0.268
same,glycan array binding signal (z-score),Gal3S(b1-3)GalNAc,1.89
same,glycan array binding signal (z-score),Gal3S(b1-3)GlcNAc,-0.253
same,glycan array binding signal (z-score),[4],-0.258
same,glycan array binding signal (z-score),Gal3S(b1-4)Glc,-0.262
same,glycan array binding signal (z-score),Gal3S(b1-4)Glc6S,-0.256
same,glycan array binding signal (z-score),Gal3S(b1-4)GlcNAc,-0.245
same,glycan array binding signal (z-score),Gal3S(b1-4)GlcNAc6S,-0.341
same,glycan array binding signal (z-score),[5],-0.154
same,glycan array binding signal (z-score),[6],-0.254
same,glycan array binding signal (z-score),[7],-0.26
same,glycan array binding signal (z-score),Gal3S4S(b1-4)GlcNAc,-0.253
same,glycan array binding signal (z-score),Gal3S6S(b1-4)GlcNAc,-0.254
same,glycan array binding signal (z-score),Gal3S6S(b1-4)GlcNAc6S,-0.293
same,glycan array binding signal (z-score),Gal4S(b1-4)GlcNAc,-0.313
same,glycan array binding signal (z-score),Gal4S6S(b1-4)GlcNAc,-0.269
same,glycan array binding signal (z-score),Gal6P(b1-4)GlcNAc,-0.334
same,glycan array binding signal (z-score),Gal6S(b1-3)GlcNAc,-0.288
same,glycan array binding signal (z-score),Gal6S(b1-3)GlcNAc6S,-0.276
same,glycan array binding signal (z-score),Gal6S(b1-4)Glc,-0.258
same,glycan array binding signal (z-score),Gal6S(b1-4)Glc6S,-0.253
same,glycan array binding signal (z-score),Gal6S(b1-4)GlcNAc,-0.294
same,glycan array binding signal (z-score),Gal6S(b1-4)GlcNAc6S,-0.283
same,glycan array binding signal (z-score),GalNAc(a1-3)Gal,0.257
same,glycan array binding signal (z-score),GalNAc(a1-3)GalNAc,-0.275
same,glycan array binding signal (z-score),[8],-0.266
same,glycan array binding signal (z-score),[9],-0.256
same,glycan array binding signal (z-score),[10],-0.32
same,glycan array binding signal (z-score),GalNAc(b1-3)Gal,0.3
same,glycan array binding signal (z-score),[11],0.248
same,glycan array binding signal (z-score),[12],-0.278
same,glycan array binding signal (z-score),[13],-0.239
same,glycan array binding signal (z-score),GalNAc(b1-3)GalNAc,3.34
same,glycan array binding signal (z-score),GalNAc(b1-3)GlcNAc,-0.285
same,glycan array binding signal (z-score),GalNAc(b1-4)Gal(b1-4)Glc,-0.25
same,glycan array binding signal (z-score),GalNAc(b1-4)GlcNAc,-0.011
same,glycan array binding signal (z-score),[14],-0.261
same,glycan array binding signal (z-score),[15],-0.021
same,glycan array binding signal (z-score),[16],-0.259
same,glycan array binding signal (z-score),GalNAc(b1-4)GlcNAc6S,-0.276
same,glycan array binding signal (z-score),GalNAc(b1-6)GalNAc,-0.285
